Source: patent US20200317802A1

Biological target: bovine recombinant ADAMTS5 (bovine)
Assay: KinExA, in solution; free 581 captured on human ADAMTS5 beads

Kd: 7.66 pM
B1: Nanobody construct 581 (2F3^SO-35GS linker-Alb11) (bispecific antibody)
chain: DVQLVESGGGVVQPGGSLRLSCAASGRTVSSYAMGWFRQAPGKEREFVAGISRSAERTYYVDSLKGRFTISRDNSKNTVYLQMNSLRPEDTALYYCAADLDPNRIFSREEYAYWGQGTLVTVSSGGGGSGGGGSGGGGSGGGGSGGGGSGGGGSGGGGS[gap - about 120 residues]
